The source of these data is ChEMBL document CHEMBL4888484, “Replenishing the malaria drug discovery pipeline: Screening and hit evaluation of the MMV Hit Generation Library 1 (HGL1) against asexual blood stage Plasmodium falciparum ,using a nano luciferase reporter read-out” (2022).

In general, % Inhibition refers to the change of the read-out against control, counted positive when it falls.

Among all 150,000 compounds or so, about 540 (0.36%) showed an effect of 50% or more. This is one part of the list.

This test has as its system Plasmodium falciparum. The test is described as follows: Primary screen in NF54 nanoGlo assay, in single point, at 2uM, 72h; a lower Z score goes with more inhibition. The class given is functional, Erythrocyte. The conditions noted are these: timepoint 72 hour.
For `CCOc1ccc(CN2CCC[C@H]2c2nc(C)no2)cc1COC(C)=O`, the “% Inhibition” value was -6% and the Z score amounted to 0.9.
As for `Cc1noc2nc(C3CC3)cc(C(=O)N(Cc3ccco3)c3ccccc3F)c12`, the “% Inhibition” value was -2% and the Z score turned out to be 0.43.
For `CN(C(=O)c1ccnc(OCC(F)F)c1)c1ccnn1C`, in that order: 8% and -1.26.
As to `CN(CCO)C(=O)Nc1ccc(OC2CCC2)c(F)c1`, the “% Inhibition” value is -18% and the Z score was determined as 1.77.
For the compound `CN(C)C[C@H]1CCN(C(=O)N(Cc2ccco2)c2ccc(F)cc2)C1`, the “% Inhibition” value was -3% and the Z score amounted to 0.63.
As to `COc1cc(C)ccc1OCc1nc(C(=O)NCc2ccc3c(c2)OCO3)cs1`, the “% Inhibition” value was -12% and the Z score turned out to be 1.16.
For `CCN(CCCN(C)C)C(=O)N[C@@H](C)c1cc2ccccc2o1`, in that order: -2% and 0.29.
For `CCc1cc(CNC(=O)N(C)CCc2cccs2)[nH]n1`, in that order: 5% and -0.94.
For `CC1(C)COc2c(S(=O)(=O)Nc3cc4ccccn4n3)cnn2C1`, in that order: -9% and 1.4.
`CC(C)n1cccc1C(=O)N1CC[C@@]2(CCCN(C3CCCC3)C2=O)C1`: the “% Inhibition” value is recorded as -11% and the Z score was determined as 0.98.
The corresponding values for `CC(NC1C2CCOC2C1(C)C)c1cnc2ccsc2c1` (configuration not stated) are -5% and 0.41.
For `CC(C)(C)OC(=O)N[C@H](Cc1ccccc1)C(N)=O`, in that order: -5% and 0.68.
Take `O=C(c1cccc(S(=O)(=O)N2CCCC2)c1)N1CCC[C@H]1c1cccs1`: the “% Inhibition” value was -21% and the Z score is reported as 2.15.
For `CCn1ncc(CN2C[C@@H]3OC(=O)N(Cc4ccccn4)[C@@H]3C2)c1C`, in that order: -6% and 1.18.
The corresponding values for `Cc1ccccc1-c1csc(=O)n1Cc1ccc(C(N)=O)cc1` are -3% and 0.6.
On to `CC(C)(C#N)CCCn1ncccc1=O`, for which the “% Inhibition” value is -4% and the Z score is reported as 0.38.
The corresponding values for `CCc1nc(C)c(C(=O)N[C@H]2[C@@H]3CCO[C@@H]3[C@@H]2C2CCCC2)o1` are 2% and -0.27.
The corresponding values for `CCCN1C(=O)N(c2ccc(=O)n(CC)c2)C(=O)[C@@H]1C` are -9% and 0.95.
For the compound `CCOC(=O)C(C(=O)OCC)N(C)C(=O)COC[C@H]1CCCO1`, the “% Inhibition” value was -9% and the Z score was determined as 1.62.
On to `COc1ccc(CCC(=O)N2CC[C@H]3C(=O)N(Cc4cccc(C)c4)CC(=O)N3CC2)cc1`, for which the “% Inhibition” value is -13% and the Z score is 1.79.
As to `CC(C)(C)OC(=O)N1C[C@@H](Nc2cccc(-n3cnc4ccccc43)n2)CC2(CCOCC2)C1`, the “% Inhibition” value is recorded as -19% and the Z score came out at 2.
For `CCCN(C)c1nccn2c(=O)n(CC(=O)Nc3ccc4c(c3)OCCO4)nc12`, in that order: -3% and 0.32.
The corresponding values for `CC(C)Cc1noc(C2(c3cccc(Br)c3)CCOCC2)n1` are -3% and 0.67.
Regarding `CC(O)CC(C)(C)CNC(=O)NCC1CCOC1c1ccccc1` (configuration not stated), the “% Inhibition” value is reported as 5% and the Z score is on record as -0.74.
The corresponding values for `Cc1cc(CN[C@@H](C)c2n[nH]c(=O)n2C)ccc1F` are -14% and 1.16.
The corresponding values for `CN1C(=O)c2cc(C(=O)NCc3ccccc3Cl)nn2C[C@@]1(C)C(=O)NC1CCCCC1` are 13% and -1.47.
On to `CCCN(CCC)S(=O)(=O)N1CCc2c(O)nn(C)c2C1`, for which the “% Inhibition” value stood at 0% and the Z score is given as 0.01.
For the compound `Cc1ccc(C(=O)N(C)CCc2noc(-c3cc4cc(Cl)ccc4[nH]3)n2)s1`, the “% Inhibition” value is given as -14% and the Z score worked out at 2.61.
For `CN(C)C(=O)C1(CNc2cnc(C#N)cn2)CCCC1`, in that order: 9% and -1.13.
The corresponding values for `CCc1ccc(CN2CCC(OCCOC)CC2)o1` are -5% and 0.51.
For `CC(C)OCCNC(=O)NCc1ccnc2ccccc12`, in that order: 1% and -0.14.
As for `CC(C)CCS(=O)(=O)Nc1cccc2[nH]cnc12`, the “% Inhibition” value turned out to be 13% and the Z score is -1.79.
For `CC1CN(C(=O)Cc2csc(-c3cccnc3)n2)CC(C)O1` (configuration not stated), the “% Inhibition” value is recorded as -15% and the Z score is listed as 2.
For `CN1CC[C@@H](C(=O)Nc2cnccc2Nc2ccccc2)S1(=O)=O`, in that order: -7% and 0.84.
On to `CCC[C@@H](CCC(=O)Nc1ccccn1)C(=O)O`, for which the “% Inhibition” value was -8% and the Z score worked out at 1.1.
For the compound `N#CCN(C(=O)c1ccc2ccccc2c1)C1CCCC1`, the “% Inhibition” value is -5% and the Z score is reported as 0.62.
In the case of `CCCn1cnnc1Cn1cnc(-c2ccccc2)c1-c1ccccc1OCC`, the “% Inhibition” value is recorded as -7% and the Z score came to 1.43.
For `CC(C)(C)c1nc(C(=O)NCCn2cnc(C(=O)O)c2)cs1`, in that order: -12% and 1.6.
The corresponding values for `NS(=O)(=O)c1ccc(CCNc2nccn3cnnc23)cc1` are -8% and 1.57.
For `COc1ccc(-c2noc(-c3ccc(N4CCC(N5CCCCC5)CC4)nc3)n2)cc1`, in that order: 1% and -0.07.
`O=C(NCCc1cnc(C2CC2)nc1)c1nccc2cccnc12`: the “% Inhibition” value is on record as -7% and the Z score amounted to 0.93.
For the compound `Cc1ccsc1[C@H]1CCN(C(=O)c2ccccc2C#N)C[C@@H]1O`, the “% Inhibition” value is -17% and the Z score is 2.06.
For `Cc1nc2ccc(NC(=O)N3Cc4ccccc4C(C)(C)C3)cn2n1`, in that order: 0% and 0.
As to `CCc1ccccc1CNC(=O)C1CC(O)CN1` (configuration not stated), the “% Inhibition” value is listed as -6% and the Z score is on record as 1.23.
For `C[C@H](NC(=O)NCc1nnc(-c2ccccc2)s1)c1cnn(C)c1`, the “% Inhibition” value worked out at 4% and the Z score is given as -0.58.
The corresponding values for `CCc1occc1C(=O)NC[C@H]1CCCCN1CCO` are 17% and -2.69.
For `CC[C@H](C)NC(=O)c1ncccc1C(=O)OC(C)(C)C`, in that order: -8% and 1.06.
Consider `CC(C)(CNCc1ccc(F)cc1)S(C)(=O)=O`, for which the “% Inhibition” value is given as -8% and the Z score amounted to 1.14.
The corresponding values for `CC1CCN(S(=O)(=O)c2cccn(CC(=O)N3CCCCC3)c2=O)CC1` are 7% and -1.35.
For `CN1CC[C@@H](CNC(=O)c2ccnc3c2ncn3C)[C@@H]1c1cccnc1`, in that order: 1% and -0.18.
With `CC(C)N(Cc1cc(-c2ccccc2)[nH]n1)C(=O)c1ccn(C(C)C)n1`, the “% Inhibition” value is -1% and the Z score is reported as 0.12.
`Cc1ncc(-c2ccccc2)cc1N1C(=O)NC2(CCCCC2)C1=O`: the “% Inhibition” value came to 4% and the Z score is -0.7.
As for `Cc1cccc(OCCc2noc(C3CN(C(=O)C4CCC4)C3)n2)c1`, the “% Inhibition” value is -17% and the Z score amounted to 2.19.
As to `COc1cc2c(cc1OC)CN1C(=O)N(CCC(=O)NCc3cccnc3)C(=O)[C@@H]1C2`, the “% Inhibition” value is -4% and the Z score stood at 0.57.
In the case of `C=CCN1CC[C@H](Cn2cnc(-c3ccccc3)c2-c2cccc(C)n2)C1`, the “% Inhibition” value is recorded as -9% and the Z score is 1.49.
As for `COC[C@@H]1C[C@@H](OC)CN1C(=O)c1nn(-c2ccc(F)cc2)cc1C`, the “% Inhibition” value was 0% and the Z score is listed as -0.04.
The corresponding values for `CN1CCN([C@H]2CN(C(=O)c3cccc(CCC(C)(C)O)c3)C[C@@H]2O)CC1` are -9% and 1.28.
For `Cc1cc(O)nc(C(=O)N[C@@H](CC(C)C)CN(C)C)c1`, in that order: -24% and 2.6.
For `COc1ccnc(-c2cc(O)cc(CC[C@H]3CCCCN3)c2)n1`, in that order: -4% and 0.49.
Regarding `CCC(NC1CCNC1=O)c1ccc(Cl)cc1` (configuration not stated), the “% Inhibition” value is -9% and the Z score came to 1.15.
`CCc1[nH]ncc1C(=O)NCCc1ccc(C(F)(F)F)cn1`: the “% Inhibition” value was -4% and the Z score is 0.44.
Turning to `Cc1cc(CN2CCC[C@H]2c2nc3ccccc3s2)oc1C(=O)O`, the “% Inhibition” value was -6% and the Z score is reported as 0.89.
For `CCO[C@@H](C)C(=O)NCc1c(C)n[nH]c1C`, the “% Inhibition” value was -13% and the Z score was 1.66.
Take `COc1ccc(S(=O)(=O)N2CCOCC2)cc1NC(=O)C1CCCCC1`: the “% Inhibition” value was -7% and the Z score is 1.08.
For `O=C1CN(C(=O)COC(=O)Cc2ccc(Cl)cc2)c2ccccc2N1`, the “% Inhibition” value stood at 10% and the Z score is reported as -1.32.
The corresponding values for `O=C(Nc1ncccc1O)c1ccsc1` are -19% and 3.36.
For `O=C(C1CCN(c2cnc3nccnc3c2)CC1)N1CCCC1`, in that order: 1% and -0.22.
The corresponding values for `Cc1cc(C)cc(NCC(=O)NCC(F)(F)F)c1` are 1% and -0.14.
As for `CCCS(=O)(=O)N1CC[C@@]2(CCCN(CC3CCCCC3)C2=O)C1`, the “% Inhibition” value was 3% and the Z score is -0.41.
As for `CCOC1CC(N(C)C(=O)c2cn[nH]c2)C1(CC)CC` (configuration not stated), the “% Inhibition” value was -2% and the Z score is recorded as 0.33.
`O=C(c1ccc(CO)o1)N1C[C@H]2CC[C@@H](C1)N(Cc1cscn1)C2=O`: the “% Inhibition” value is given as 3% and the Z score is -0.39.
For `O=C(Nc1ccc(F)c(Cl)c1)N(Cc1ccncc1)C1CC1`, in that order: -11% and 1.35.
Consider `O=C(NCC1CCCCC1)c1ccc2c(c1)nc1n2CCN(C2CCCCC2)C1=O`, for which the “% Inhibition” value was -3% and the Z score is 0.35.
For `COc1ccc(N[C@@H](C)c2nc(-c3ccco3)no2)cc1`, in that order: -3% and 0.47.
The corresponding values for `CC(C)[C@H](NS(=O)(=O)c1ccc2ccccc2c1)C(=O)N1CCCCC1` are -4% and 0.5.
Take `CCC[C@H](C)NC(=O)c1c(F)cccc1F`: the “% Inhibition” value is listed as -11% and the Z score is listed as 1.29.
The corresponding values for `CN(C(=O)CC1CCCC1)C1CN(c2ccc3nnc(C(C)(C)C)n3n2)C1` are -13% and 1.85.
Consider `O=C(COC[C@H]1CCCCO1)N1CCN(C(=O)c2ccco2)CC1`, for which the “% Inhibition” value turned out to be 0% and the Z score is -0.03.
The corresponding values for `CC(=O)c1cnc(N[C@@H](C)[C@H](O)c2ccc(O)cc2)nc1C` are -7% and 1.09.
With `CCS(=O)(=O)N1C[C@@H]2CN(C(=O)c3ccc(OC)nc3)C[C@]2(c2nc(C)no2)C1`, the “% Inhibition” value was -7% and the Z score is recorded as 0.93.
The corresponding values for `CN(Cc1ccncc1)Cc1ccnn1C` are -4% and 0.41.
For `COCCNS(=O)(=O)c1ccc(OC)c(-c2nc(C(C)C)no2)c1`, in that order: -6% and 1.25.
For `CCCn1nccc1NC(=O)NCc1cn2ccc(C)nc2n1`, the “% Inhibition” value was determined as 0% and the Z score is recorded as -0.05.
Consider `O=C(Cc1cnccn1)N[C@H]1CC(=O)N(c2ccc(F)cc2)C1`, for which the “% Inhibition” value came to 8% and the Z score is given as -1.31.
For `O=C(CNC(=O)OCc1ccccc1)NC[C@H](O)c1ccccc1`, in that order: 5% and -0.65.
`CC(=O)N1C(C)CN(S(=O)(=O)c2ccc(C)cc2)C1c1ccc(N(C)C)cc1` (configuration not stated): the “% Inhibition” value was 33% and the Z score was -3.7.
